± gives the standard deviation of the averaged measurements. In all, about 33,000 sequences were measured (“E-score (dimensionless, -0.5 to 0.5)”: median about -0.049, highest 2% from about 0.37 on). The list shows a part of the results.
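Also: 200 nM protein in PBS on universal arrays averaged over duplicate arrays.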

The test system of this assay is T1, PmTbr T-box DNA-binding domain (GST fusion).
T1 sequence: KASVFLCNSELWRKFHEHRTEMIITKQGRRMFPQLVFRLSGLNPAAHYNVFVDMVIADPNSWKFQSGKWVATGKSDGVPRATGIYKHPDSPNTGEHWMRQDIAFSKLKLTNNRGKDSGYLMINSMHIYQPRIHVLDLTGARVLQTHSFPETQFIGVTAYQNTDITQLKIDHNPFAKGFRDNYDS
In words: PBM E-score of 8-mer (E-score (dimensionless, -0.5 to 0.5)); Tbr is Tbrain of the sea star Patiria miniata (Pm) or the sea urchin Strongylocentrotus purpuratus (Sp); higher = stronger binding preference; most listed sequences are background and not binding sites. The following applies: the construct has about 5 more residues each side. Here is the method:
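Universal protein-binding microarray (Agilent AMADID 016060, 60-bp probes with a 35-bp variable region) incubated with 200 nM GST-fused Patiria miniata Tbr T-box DNA-binding domain (residues 272-466) in PBS pH 7.5. Scored for every ungapped 8-mer (given with its reverse complement) by the Universal PBM Analysis Suite as E-score (modified Wilcoxon-Mann-Whitney enrichment, range -0.5 to 0.5; >0.45 counts as bound) and Z-score of median probe intensity. Two replicate arrays (datasets 1 and 2).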
ACTGAACG: the “PBM E-score of 8-mer” value was -0.315 ± 0.091.

CGCCGGCA: the “PBM E-score of 8-mer” value is 0.134 ± 0.043.

With CAAAGGCC, the “PBM E-score of 8-mer” value was -0.26 ± 0.042.

ACGGGCCA: the “PBM E-score of 8-mer” value is -0.323 ± 0.035.

Take GACTGTGC: the “PBM E-score of 8-mer” value was -0.0215 ± 0.02.

For the sequence CCCCTGCG, the “PBM E-score of 8-mer” value was -0.147 ± 0.029.

Take CCGACCCA: the “PBM E-score of 8-mer” value is -0.196 ± 0.052.

Regarding GAAACGAC, the “PBM E-score of 8-mer” value was 0.132 ± 0.018.

As to AAAAAAAC, the “PBM E-score of 8-mer” value was found to be 0.00934 ± 0.077.

ACCCCGTA: the “PBM E-score of 8-mer” value is 0.0227 ± 0.038.

Turning to ACCTAACA, the “PBM E-score of 8-mer” value came out at 0.3379 ± 0.0024.

Consider CAAGGACG, for which the “PBM E-score of 8-mer” value is -0.135 ± 0.0014.

In the case of ACTTGAGG, the “PBM E-score of 8-mer” value is -0.0252 ± 0.019.

Turning to GCTGCACA, the “PBM E-score of 8-mer” value was 0.0562 ± 0.02.

AGACAGTG: the “PBM E-score of 8-mer” value was found to be 0.141 ± 0.06.

With ATGTCTGG, the “PBM E-score of 8-mer” value was -0.071 ± 0.0064.

As to CCTGTCGC, the “PBM E-score of 8-mer” value worked out at 0.247 ± 0.064.

Regarding AGAATTCT, the “PBM E-score of 8-mer” value was found to be 0.0148 ± 0.1.

Consider AGGGAATG, for which the “PBM E-score of 8-mer” value is -0.318 ± 0.075.

For AGACTTTA, the “PBM E-score of 8-mer” value is -0.226 ± 0.099.

As for GAAATCTA, the “PBM E-score of 8-mer” value is -0.239 ± 0.024.

Take AGCACAGA: the “PBM E-score of 8-mer” value was -0.153 ± 0.11.

Take GAATAGCA: the “PBM E-score of 8-mer” value stood at 0.126 ± 0.034.

As to CCTTTTTC, the “PBM E-score of 8-mer” value is -0.126 ± 0.028.

As to GTAGTTTA, the “PBM E-score of 8-mer” value was 0.00144 ± 0.0037.

With CTACCTAC, the “PBM E-score of 8-mer” value is -0.216 ± 0.098.

With CACAGGTA, the “PBM E-score of 8-mer” value was found to be 0.163 ± 0.029.

For the sequence AACTACTT, the “PBM E-score of 8-mer” value is -0.0181 ± 0.019.

CAAGCGGG: the “PBM E-score of 8-mer” value is -0.124 ± 0.011.

With GGGGTCAC, the “PBM E-score of 8-mer” value was 0.104 ± 0.0032.

Regarding AGAGGAGA, the “PBM E-score of 8-mer” value was -0.0936 ± 0.0028.

With CAACGAAC, the “PBM E-score of 8-mer” value was -0.127 ± 0.13.

AGAAATTA: the “PBM E-score of 8-mer” value is -0.237 ± 0.12.

On to CTGCCGGC, for which the “PBM E-score of 8-mer” value was -0.0591 ± 0.1.

With GTGGAACA, the “PBM E-score of 8-mer” value amounted to 0.0806 ± 0.064.

As to GAAACAGA, the “PBM E-score of 8-mer” value was -0.169 ± 0.058.

On to TACCCACA, for which the “PBM E-score of 8-mer” value amounted to 0.107 ± 0.03.

With TCTCCCCA, the “PBM E-score of 8-mer” value was -0.0247 ± 0.026.

Take CAATAACC: the “PBM E-score of 8-mer” value was -0.0704 ± 0.022.

As to ATGCCGGA, the “PBM E-score of 8-mer” value was -0.239 ± 0.037.

As to GGCCGGTA, the “PBM E-score of 8-mer” value is -0.0959 ± 0.011.

TAAGGGTA: the “PBM E-score of 8-mer” value was -0.0816 ± 0.1.

On to ACCCTTCA, for which the “PBM E-score of 8-mer” value came to 0.0464 ± 0.023.

Take CCTTATAG: the “PBM E-score of 8-mer” value was -0.0154 ± 0.1.

Consider ACTAAGCC, for which the “PBM E-score of 8-mer” value is -0.141 ± 0.11.

For the sequence CCATATCG, the “PBM E-score of 8-mer” value is -0.11 ± 0.0042.

Consider TAGATTGA, for which the “PBM E-score of 8-mer” value was -0.229 ± 0.059.

As for ATGCAATC, the “PBM E-score of 8-mer” value was -0.0992 ± 0.016.

On to ATTCCAAT, for which the “PBM E-score of 8-mer” value worked out at 0.0337 ± 0.048.

For AAGGCGCG, the “PBM E-score of 8-mer” value came to 0.32 ± 0.011.

For CTTCTTTA, the “PBM E-score of 8-mer” value was determined as 0.0178 ± 0.01.

In the case of CACACGAA, the “PBM E-score of 8-mer” value was -0.0891 ± 0.04.

In the case of AAACCCGC, the “PBM E-score of 8-mer” value amounted to 0.144 ± 0.018.

For ATGGACTA, the “PBM E-score of 8-mer” value is -0.0491 ± 0.0021.

Turning to CGTATGAA, the “PBM E-score of 8-mer” value was -0.188 ± 0.11.

On to ACCAGAAG, for which the “PBM E-score of 8-mer” value stood at 0.0397 ± 0.019.

For ACAGACTA, the “PBM E-score of 8-mer” value is -0.198 ± 0.085.

TGGTTACA: the “PBM E-score of 8-mer” value worked out at 0.0316 ± 0.057.

Turning to ATACCTTC, the “PBM E-score of 8-mer” value was found to be 0.00168 ± 0.039.

With CAGGCCGC, the “PBM E-score of 8-mer” value is -0.0846 ± 0.021.

GTAAATTA: the “PBM E-score of 8-mer” value was -0.134 ± 0.095.

As to ACCTTCAG, the “PBM E-score of 8-mer” value was -0.0271 ± 0.043.

Consider CCGGCTCA, for which the “PBM E-score of 8-mer” value was -0.114 ± 0.029.

Regarding ATGCCGAG, the “PBM E-score of 8-mer” value was -0.1 ± 0.035.

Consider ATGGCTTC, for which the “PBM E-score of 8-mer” value was -0.16 ± 0.012.

With ACTGAGAC, the “PBM E-score of 8-mer” value is -0.232 ± 0.0055.

With ATTACGCC, the “PBM E-score of 8-mer” value was -0.0352 ± 0.086.

Consider AAATATCC, for which the “PBM E-score of 8-mer” value was -0.0248 ± 0.021.

Regarding ACGCCGAC, the “PBM E-score of 8-mer” value was 0.129 ± 0.014.

In the case of TCGGTTAA, the “PBM E-score of 8-mer” value was -0.0369 ± 0.011.

Turning to CGGGTGGA, the “PBM E-score of 8-mer” value was -0.0228 ± 0.025.

On to CTGCGAGC, for which the “PBM E-score of 8-mer” value came to 0.162 ± 0.013.

In the case of AACCGAAT, the “PBM E-score of 8-mer” value was -0.22954 ± 3.5e-05.

Take ATCTGTCA: the “PBM E-score of 8-mer” value came to 0.311 ± 0.016.

In the case of CTCGATTC, the “PBM E-score of 8-mer” value was -0.169 ± 0.0064.

For the sequence GCAAGTAA, the “PBM E-score of 8-mer” value came out at 0.129 ± 0.032.

In the case of GTGTGGCA, the “PBM E-score of 8-mer” value came out at 0.258 ± 0.033.

As to ATCTTCAG, the “PBM E-score of 8-mer” value was -0.156 ± 0.054.

For ATTTCCGG, the “PBM E-score of 8-mer” value is -0.162 ± 0.04.

Take AAATTGGT: the “PBM E-score of 8-mer” value is -0.0362 ± 0.063.

For the sequence ACGTGGGC, the “PBM E-score of 8-mer” value is -0.148 ± 0.094.

Consider GCAGGCTA, for which the “PBM E-score of 8-mer” value was -0.198 ± 0.049.

CTGCCGGA: the “PBM E-score of 8-mer” value was -0.119 ± 0.0089.

With CACCTTGG, the “PBM E-score of 8-mer” value came to 0.45511 ± 0.00014.

As to AGTCAAAA, the “PBM E-score of 8-mer” value was -0.16 ± 0.093.

With CTTCAGGA, the “PBM E-score of 8-mer” value was -0.101 ± 0.0096.

Source of the values: the supplement of paper PMC4166925.
